{"source": "the supplement of paper PMC11417369", "note": "± gives the standard deviation of the averaged measurements. The list shows a part of the results.", "data": [{"system": "PfAP2-I AP2 domain 3 (GST-tagged)", "assay": "gcPBM binding intensity (ln(normalized median fluorescence intensity)); higher = stronger DNA binding", "method_in_brief": "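Binding intensity values are the highest Masliner-normalised natural-log median intensity among replicate spots of either probe orientation. The binding step lasted 1 h in 1× PBS with 1% milk, 0.2 mg/ml BSA, 0.5% salmon testes DNA and 0.03% Triton X-100, using GST-tagged P. falciparum DNA-binding domains expressed in E. coli on an Agilent 4 × 180k array of primer-extended double-stranded 36-bp intergenic genomic probes plus negative controls. Alexa488 anti-GST antibody and a 488 nm scan detected bound protein.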", "values": [{"sequence": "AAATAATATTTTTTTTTTTTTTTTTTTTTATGTTAT [CACACA_negctrl_site809]", "gcPBM binding intensity (ln)": "7.29 ± 0.3"}, {"sequence": "TGGTAGTATATCATAGAAATCATTGTATAACAAATA [XGTACX_negctrl_site569]", "gcPBM binding intensity (ln)": "7.51 ± 0.54"}, {"sequence": "AAAAAAAAAAAAAAAACACACAAATCATAAATAAAT [CACACA_site478]", "gcPBM binding intensity (ln)": "8.68 ± 0.53"}, {"sequence": "ATAGTCTTAATGACTACACACCTAACTATGCATGCA [CACACA_site5084]", "gcPBM binding intensity (ln)": "7.65 ± 0.79"}, {"sequence": "ATACAGTTGCATATGGTGCACGAATAATACACCTAT", "gcPBM binding intensity (ln)": "11 ± 0.25"}, {"sequence": "ATTTTTCTTTTTAATACACACAAAAGTGATACAAAC [CACACA_site3923]", "gcPBM binding intensity (ln)": "8.13 ± 0.49"}, {"sequence": "TTTTTTTGTATTTGTTTATTTAATGATAAAATTAAA [CACACA_negctrl_site225]", "gcPBM binding intensity (ln)": "7.72 ± 0.61"}, {"sequence": "TGTATTATATATACACAAATATTTATGTGTGTGTTT [XGTACX_negctrl_site475]", "gcPBM binding intensity (ln)": "7.73 ± 0.41"}, {"sequence": "ATAATATATACTATATGTACATATCTTTTCCTCTTT [XGTACX_site5553]", "gcPBM binding intensity (ln)": "7.92 ± 0.67"}, {"sequence": "TTTTTCATAAAAAAATAAAAAAAATTAACATAGAAA [XGTACX_negctrl_site11]", "gcPBM binding intensity (ln)": "7.33 ± 0.79"}, {"sequence": "TTTTAGAGTGGTATATATTAATTTTTAATAAAAAAA [CACACA_negctrl_site1652]", "gcPBM binding intensity (ln)": "7.92 ± 0.3"}, {"sequence": "AATAAAAGAAGACAGAGTACACAGGTTGTATTTTCC [XGTACX_site7208]", "gcPBM binding intensity (ln)": "7.7 ± 0.69"}, {"sequence": "TGTGCATAAATTTATGCACACATAAAAAAAAAAAAA [CACACA_site8954]", "gcPBM binding intensity (ln)": "11.5 ± 0.93"}, {"sequence": "ATAGTATCTGGTAGCTGTACGAGTCGTAGAGTGTAG [XGTACX_site2030]", "gcPBM binding intensity (ln)": "8.26 ± 0.62"}, {"sequence": "TATGTATTTTTTAAGTGTACCTATATATATATATAT [XGTACX_site7934]", "gcPBM binding intensity (ln)": "9.22 ± 0.071"}, {"sequence": "TGGGAAGGGTGGGAAACTTTATCAAAAACTTATTAC [GTGCAC_negctrl_site16]", "gcPBM binding intensity (ln)": "8.23 ± 0.57"}, {"sequence": "TATAATAATAATTATTGTACGATTAGGTTAATTCAT [XGTACX_site1984]", "gcPBM binding intensity (ln)": "7.79 ± 0.44"}, {"sequence": "AGAAAGGTGGTATTAAAAGAATAACCTATGAATAAA [GTGCAC_negctrl_site325]", "gcPBM binding intensity (ln)": "7.86 ± 0.43"}, {"sequence": "AAAAAATTATACCTTTGTACATAAATAAAATATTAT [XGTACX_site418]", "gcPBM binding intensity (ln)": "7.55 ± 0.45"}, {"sequence": "ACCCATTGCTCACGTGCACACATAGAAAAATAATTC [CACACA_site4389]", "gcPBM binding intensity (ln)": "10.7 ± 0.16"}, {"sequence": "ATAACATAAGGAAATACACACATATATAAGTATATA [CACACA_site778]", "gcPBM binding intensity (ln)": "7.66 ± 0.45"}, {"sequence": "TATGTATATATTTACGCATGCTACTCTATTTTGAGA [TGCATGCA_site990]", "gcPBM binding intensity (ln)": "7.64 ± 0.48"}, {"sequence": "AGGTTTCATTTAGCATGTACATATTATAAAAATTGT [XGTACX_site8448]", "gcPBM binding intensity (ln)": "8.01 ± 0.59"}, {"sequence": "AAGATTACTTATATATGTACACATAATACAAATGTC [XGTACX_site520]", "gcPBM binding intensity (ln)": "7.95 ± 0.47"}, {"sequence": "TCTGTTAATATTTATACACACATATATATATATATA [CACACA_site1139]", "gcPBM binding intensity (ln)": "9.36 ± 0.54"}, {"sequence": "CATATATATTTGTTCACACACACACTAATAAAAAAA [CACACA_site8787]", "gcPBM binding intensity (ln)": "8.09 ± 0.33"}, {"sequence": "TGGAGGAACCTCATATGTACGTATAAATATATATTT [XGTACX_site5603]", "gcPBM binding intensity (ln)": "7.75 ± 0.46"}, {"sequence": "TTAAAGCACCCATGCACACACACAAAGGAAAAGAAA [CACACA_site233]", "gcPBM binding intensity (ln)": "11.1 ± 0.93"}, {"sequence": "TGATAAATTAAAAATTGTACTATTATAATAATATAT [XGTACX_site6615]", "gcPBM binding intensity (ln)": "7.5 ± 0.34"}, {"sequence": "TTTATATAAATTTATTCACACAACTAATTTTTTAAA [CACACA_site4848]", "gcPBM binding intensity (ln)": "7.53 ± 0.61"}, {"sequence": "ATCAAATAGAGACACACACACCTAAACATAAAAGAA [CACACA_site7321]", "gcPBM binding intensity (ln)": "8.07 ± 0.64"}, {"sequence": "ACAATAAACATATATACACACACAAAAAAAAAAACA [CACACA_site8033]", "gcPBM binding intensity (ln)": "7.81 ± 0.35"}, {"sequence": "ATTTATTAATATCCCAGTACTCATGGGGAATAATGA [XGTACX_site4014]", "gcPBM binding intensity (ln)": "7.66 ± 0.46"}, {"sequence": "TTGTGTAAAGGTATTATTGTATTATTCAAAATAAAA [XGTACX_negctrl_site167]", "gcPBM binding intensity (ln)": "7.64 ± 0.38"}, {"sequence": "AATATATAATATATATGTACTTATATATAAAAGATA [XGTACX_site7635]", "gcPBM binding intensity (ln)": "7.8 ± 0.21"}, {"sequence": "AATATAAACAAACACACACACATATATATATATATT [CACACA_site5592]", "gcPBM binding intensity (ln)": "7.79 ± 0.46"}, {"sequence": "ATAAAAAAAGGACACACACACATATATTTATTTATA [CACACA_site7438]", "gcPBM binding intensity (ln)": "7.89 ± 0.31"}, {"sequence": "AAAAAAAAAAAAAATAGTACAATACCCAAATATAAC [XGTACX_site6684]", "gcPBM binding intensity (ln)": "8.26 ± 0.38"}, {"sequence": "ATGTCATATAATAGTACACACATGAAAATATAAATA [CACACA_site3215]", "gcPBM binding intensity (ln)": "8.07 ± 0.3"}, {"sequence": "GGTAGGGATTATACCACACACACATACACATAAATA [CACACA_site3179]", "gcPBM binding intensity (ln)": "8 ± 0.35"}, {"sequence": "ACTATTAAAATGAATACACACAAATATAAAAATATA [CACACA_site4145]", "gcPBM binding intensity (ln)": "7.71 ± 0.25"}, {"sequence": "ACGCTACATAAATACGTGCACATCTTTTTGTGTATA [GTGCAC_site9675]", "gcPBM binding intensity (ln)": "10.8 ± 0.15"}, {"sequence": "CATCTTATATAATCATGTACATATAGAGACTTCTTT [XGTACX_site7685]", "gcPBM binding intensity (ln)": "7.74 ± 0.47"}, {"sequence": "GGGGGAATTTACATGGGTACACATGTATTAAAAAAT [XGTACX_site4130]", "gcPBM binding intensity (ln)": "8.995 ± 0.049"}, {"sequence": "TTTTTCTTACATGAGTGTACACACTTTTTTTCAGAA [XGTACX_site138]", "gcPBM binding intensity (ln)": "8.475 ± 0.035"}, {"sequence": "TTATATGTATGGAGGTTTTTGTATATAGATATATAG [CACACA_negctrl_site177]", "gcPBM binding intensity (ln)": "7.65 ± 0.54"}, {"sequence": "AAAAAAAAATTATTCACACATATATATATATATATA [CACACA_site5579]", "gcPBM binding intensity (ln)": "9.43 ± 0.29"}, {"sequence": "GAACCATAAGGAACGACACACAAAGATAAATAAATA [CACACA_site3472]", "gcPBM binding intensity (ln)": "7.61 ± 0.48"}, {"sequence": "AAAAATAAAAAAAGCACACACATATATATATATATA [CACACA_site1885]", "gcPBM binding intensity (ln)": "9.76 ± 0.33"}, {"sequence": "ATAATATTTTAATGCACACACACAAAAAAAAAAAAA [CACACA_site2891]", "gcPBM binding intensity (ln)": "11.2 ± 0.61"}, {"sequence": "AAATTTGCTTTTATTTTACACACTTGCTCCTGTTGT [CACACA_site8276]", "gcPBM binding intensity (ln)": "8.07 ± 0.92"}, {"sequence": "AAACAATCTAAAAGTAGTACAATAAAAATATATATA [XGTACX_site5607]", "gcPBM binding intensity (ln)": "8.08 ± 0.57"}, {"sequence": "CGATACTTTAGGTGTACACAAATATACATGAATGAG [CACACA_site5189]", "gcPBM binding intensity (ln)": "8.51 ± 0.43"}, {"sequence": "AAAAAAAAGGAAATAACACACATGTATTTATTTATA [CACACA_site4966]", "gcPBM binding intensity (ln)": "7.38 ± 0.55"}, {"sequence": "TATAATCATATTAAGGGTACATATGTGTAAATATTT [XGTACX_site6018]", "gcPBM binding intensity (ln)": "8.21 ± 0.63"}, {"sequence": "TTATTATAAATGTTTTGTACGTACATCCGAAAATAA [XGTACX_site2175]", "gcPBM binding intensity (ln)": "8.18 ± 0.27"}]}]}
